In US20260263442A1, “METHOD FOR TREATING L-DOPA-INDUCED DYSKINESIA USING BEFIRADOL” (Neurolixis, Inc., priority 2023, published 2026):

Test system: patients with moderate to severe L-DOPA-induced dyskinesia (LID) in Parkinson's disease
Assay: Adverse events, Phase 2a study of NLX-112 versus placebo

Cc1ccc(CNCC2(F)CCN(C(=O)c3ccc(F)c(Cl)c3)CC2)nc1 [NLX-112]
2/18: Number of dizziness adverse events per patient (NLX-112 group, events/patients)
4 (27) n (%): AE action: Dose Not Changed, subjects n (%) (down-titration, N = 15)
0 n (%): Irritability, subjects n (%) (Full analysis set, N = 18) | Neck pain, subjects n (%) (Full analysis set, N = 18) | Rhinitis, subjects n (%) (Full analysis set, N = 18) | SAE: Congenital Anomaly or Birth Defect, subjects n (%) (Full analysis set, N = 18) | SAE: Is Life Threatening, subjects n (%) (Full analysis set, N = 18) | SAE: Other Medically Important Serious Event, subjects n (%) (Full analysis set, N = 18) | SAE: Persistent or Significant Disability/Incapacity, subjects n (%) (Full analysis set, N = 18) | SAE: Requires or Prolongs Hospitalization, subjects n (%) (Full analysis set, N = 18) | Skin and subcutaneous tissue disorders (system organ class), subjects n (%) (Full analysis set, N = 18) | Syncope, subjects n (%) (Full analysis set, N = 18) | Taste disorder, subjects n (%) (Full analysis set, N = 18) | AE action: Dose Reduced, subjects n (%) (down-titration, N = 15) | AE action: Drug Interrupted, subjects n (%) (down-titration, N = 15) | AE action: Not Applicable, subjects n (%) (down-titration, N = 15)
0: Irritability, events m (Full analysis set, N = 18) | Neck pain, events m (Full analysis set, N = 18) | Rhinitis, events m (Full analysis set, N = 18) | SAE: Congenital Anomaly or Birth Defect, events m (Full analysis set, N = 18) | SAE: Is Life Threatening, events m (Full analysis set, N = 18) | SAE: Other Medically Important Serious Event, events m (Full analysis set, N = 18) | SAE: Persistent or Significant Disability/Incapacity, events m (Full analysis set, N = 18) | SAE: Requires or Prolongs Hospitalization, events m (Full analysis set, N = 18) | Skin and subcutaneous tissue disorders (system organ class), events m (Full analysis set, N = 18) | Syncope, events m (Full analysis set, N = 18) | Taste disorder, events m (Full analysis set, N = 18) | AE action: Dose Reduced, events m (down-titration, N = 15) | AE action: Drug Interrupted, events m (down-titration, N = 15) | AE action: Not Applicable, events m (down-titration, N = 15)
89%: Proportion of patients experiencing an adverse event (NLX-112 group)
1 (6.7) n (%): AE causality: Probably Related, subjects n (%) (down-titration, N = 15)
3 (17%) n (%): Parkinsonism, subjects n (%) (Full analysis set, N = 18) | Vascular disorders (system organ class), subjects n (%) (Full analysis set, N = 18)
16: Nervous system disorders (system organ class), events m (Full analysis set, N = 18)
2 (13) n (%): AE causality: Possibly Related, subjects n (%) (down-titration, N = 15)
2: Orthostatic hypotension, events m (Full analysis set, N = 18) | Renal and urinary disorders (system organ class), events m (Full analysis set, N = 18) | Restless legs syndrome, events m (Full analysis set, N = 18) | Surgical and medical procedures (system organ class), events m (Full analysis set, N = 18) | Vertigo, events m (Full analysis set, N = 18) | Vomiting, events m (Full analysis set, N = 18) | AE causality: Unlikely Related, events m (down-titration, N = 15)
6 (33%) n (%): Psychiatric disorders (system organ class), subjects n (%) (Full analysis set, N = 18)
1 (5.6%) n (%): Investigations (system organ class), subjects n (%) (Full analysis set, N = 18) | Lip injury, subjects n (%) (Full analysis set, N = 18) | Metabolism and nutrition disorders (system organ class), subjects n (%) (Full analysis set, N = 18) | Micturition urgency, subjects n (%) (Full analysis set, N = 18) | Muscle spasms, subjects n (%) (Full analysis set, N = 18) | Musculoskeletal stiffness, subjects n (%) (Full analysis set, N = 18) | Nasopharyngitis, subjects n (%) (Full analysis set, N = 18) | On and off phenomenon, subjects n (%) (Full analysis set, N = 18) | Oral pain, subjects n (%) (Full analysis set, N = 18) | Pain in extremity, subjects n (%) (Full analysis set, N = 18) | Palpitations, subjects n (%) (Full analysis set, N = 18) | Parosmia, subjects n (%) (Full analysis set, N = 18) | Pollakiuria, subjects n (%) (Full analysis set, N = 18) | Product communication issue, subjects n (%) (Full analysis set, N = 18) | Rapid eye movement sleep behaviour disorder, subjects n (%) (Full analysis set, N = 18) | Sleep disorder, subjects n (%) (Full analysis set, N = 18) | Somnolence, subjects n (%) (Full analysis set, N = 18) | Stress, subjects n (%) (Full analysis set, N = 18) | Surgical and medical procedures (system organ class), subjects n (%) (Full analysis set, N = 18) | Swelling of eyelid, subjects n (%) (Full analysis set, N = 18) | Systolic hypertension, subjects n (%) (Full analysis set, N = 18) | Tinnitus, subjects n (%) (Full analysis set, N = 18)
6: Musculoskeletal and connective tissue disorders (system organ class), events m (Full analysis set, N = 18) | AE action: Dose Not Changed, events m (down-titration, N = 15)
5 (28%) n (%): Musculoskeletal and connective tissue disorders (system organ class), subjects n (%) (Full analysis set, N = 18)
3: Parkinsonism, events m (Full analysis set, N = 18) | Vascular disorders (system organ class), events m (Full analysis set, N = 18) | AE causality: Possibly Related, events m (down-titration, N = 15)
71/18: Number of adverse events per patient (NLX-112 group, events/patients)
10 (56%) n (%): Nervous system disorders (system organ class), subjects n (%) (Full analysis set, N = 18)
2 (11%) n (%): Orthostatic hypotension, subjects n (%) (Full analysis set, N = 18) | Renal and urinary disorders (system organ class), subjects n (%) (Full analysis set, N = 18) | Restless legs syndrome, subjects n (%) (Full analysis set, N = 18) | Vertigo, subjects n (%) (Full analysis set, N = 18) | Vomiting, subjects n (%) (Full analysis set, N = 18)
4: Nausea, events m (Full analysis set, N = 18)
4 (22%) n (%): Nausea, subjects n (%) (Full analysis set, N = 18)
9: Psychiatric disorders (system organ class), events m (Full analysis set, N = 18)
1: Investigations (system organ class), events m (Full analysis set, N = 18) | Lip injury, events m (Full analysis set, N = 18) | Metabolism and nutrition disorders (system organ class), events m (Full analysis set, N = 18) | Micturition urgency, events m (Full analysis set, N = 18) | Muscle spasms, events m (Full analysis set, N = 18) | Musculoskeletal stiffness, events m (Full analysis set, N = 18) | Nasopharyngitis, events m (Full analysis set, N = 18) | On and off phenomenon, events m (Full analysis set, N = 18) | Oral pain, events m (Full analysis set, N = 18) | Pain in extremity, events m (Full analysis set, N = 18) | Palpitations, events m (Full analysis set, N = 18) | Parosmia, events m (Full analysis set, N = 18) | Pollakiuria, events m (Full analysis set, N = 18) | Product communication issue, events m (Full analysis set, N = 18) | Rapid eye movement sleep behaviour disorder, events m (Full analysis set, N = 18) | Sleep disorder, events m (Full analysis set, N = 18) | Somnolence, events m (Full analysis set, N = 18) | Stress, events m (Full analysis set, N = 18) | Swelling of eyelid, events m (Full analysis set, N = 18) | Systolic hypertension, events m (Full analysis set, N = 18) | Tinnitus, events m (Full analysis set, N = 18) | AE causality: Probably Related, events m (down-titration, N = 15)
